# Assay results reported in the supplement of paper PMC10037445.
# In all, about 2,900 compounds were measured (“IRF Lucia reporter activity, fold change vs agonist alone”: median about 0.9, highest 2% from about 2.8 on). Some of the results follow.
# How the values were obtained:
# RAW-Dual [1] = experiment: IRF Lucia reporter activity, fold change vs agonist alone; higher = enhanced IRF activity; settings: agonist: MPLA (TLR4) […]
# In short: (§1)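 Supernatant from RAW-Dual macrophages was read after 20 hours for IRF by QuantiLuc luminescence and for NF-κB by QuantiBlue absorbance at 620 nm. The cells (50,000 cells/well in DMEM, 384-well plates, 37 °C, 5% CO2) had received 50 nL of library stock by pin tool and, 1 h later, a PRR agonist. Reporter activity is expressed relative to agonist-alone wells as fold change, and wells were flagged cytotoxic if IncuCyte confluency was under 70% of agonist controls in both mask sets.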
# RAW-Dual [2] = experiment: IRF Lucia reporter activity, fold change vs agonist alone; cytotoxicity flag (confluency mask): not cytotoxic; higher = enhanced IRF activity
# In short: as §1
# RAW-Dual [3] = experiment: IRF Lucia reporter activity, fold change vs agonist alone; cytotoxicity flag (confluency mask): cytotoxic (confluency <70% of control); higher = enhanced IRF activity
# In short: as §1
# [4] = library stock concentration (final ~1000-fold dilution): 2 mM, cytotoxicity flag (confluency mask): not cytotoxic
# [5] = agonist: 3'3'-cGAMP (STING) 10 ug/mL
# [6] = library stock concentration (final ~1000-fold dilution): 10 mM, cytotoxicity flag (confluency mask): cytotoxic (confluency <70% of control)
# [7] = library stock concentration (final ~1000-fold dilution): 10 mM, cytotoxicity flag (confluency mask): not cytotoxic
compound,measurement,setting,value
Cc1nc2n(c(=O)c1CCN1CCC(c3noc4cc(F)ccc34)CC1)CCCC2,IRF Lucia reporter activity,RAW-Dual [1]; [4],1.21
Cc1nc2n(c(=O)c1CCN1CCC(c3noc4cc(F)ccc34)CC1)CCCC2 (library stock concentration (final ~1000-fold dilution): 2 mM),IRF Lucia reporter activity,RAW-Dual [2]; [5],1.02
same,IRF Lucia reporter activity,RAW-Dual [2]; agonist: LPS (TLR4) 0.1 ug/mL,0.978
COc1cc2c(cc1O)CCC1C2CCC2(C)C(O)CCC12 (stereo not drawn) (library stock concentration (final ~1000-fold dilution): 10 mM),IRF Lucia reporter activity,RAW-Dual [3]; [5],0.205
same,IRF Lucia reporter activity,RAW-Dual [3]; agonist: LPS (TLR4) 0.1 ug/mL,1.03
COc1cc2c(cc1O)CCC1C2CCC2(C)C(O)CCC12 (stereo not drawn),IRF Lucia reporter activity,RAW-Dual [1]; [6],1.31
COc1ccc(Cn2c3ncnc4c(ncn4Cc4ccc(OC)cc4)c-3nc2=O)cc1 (library stock concentration (final ~1000-fold dilution): 10 mM),IRF Lucia reporter activity,RAW-Dual [2]; [5],0.58
same,IRF Lucia reporter activity,RAW-Dual [2]; agonist: LPS (TLR4) 0.1 ug/mL,1.83
CCCC(NC(=O)/C(C#N)=C/c1cccc(Br)n1)c1ccccc1 (stereo not drawn),IRF Lucia reporter activity,RAW-Dual [1]; [7],1.07
CCCC(NC(=O)/C(C#N)=C/c1cccc(Br)n1)c1ccccc1 (stereo not drawn) (library stock concentration (final ~1000-fold dilution): 10 mM),IRF Lucia reporter activity,RAW-Dual [2]; [5],0.988
same,IRF Lucia reporter activity,RAW-Dual [2]; agonist: LPS (TLR4) 0.1 ug/mL,0.0105
CCN1CC(CCN2CCOCC2)C(c2ccccc2)(c2ccccc2)C1=O (stereo not drawn),IRF Lucia reporter activity,RAW-Dual [1]; [7],1.09
CCN1CC(CCN2CCOCC2)C(c2ccccc2)(c2ccccc2)C1=O (stereo not drawn) (library stock concentration (final ~1000-fold dilution): 10 mM),IRF Lucia reporter activity,RAW-Dual [2]; [5],1
same,IRF Lucia reporter activity,RAW-Dual [2]; agonist: LPS (TLR4) 0.1 ug/mL,1.36
CCCC1CC(C(=O)NC(C(C)Cl)C2OC(SC)C(O)C(O)C2O)N(C)C1.Cl (stereo not drawn) (library stock concentration (final ~1000-fold dilution): 10 mM),IRF Lucia reporter activity,RAW-Dual [2]; [5],0.994
same,IRF Lucia reporter activity,RAW-Dual [2]; agonist: LPS (TLR4) 0.1 ug/mL,1.13
CCCC1CC(C(=O)NC(C(C)Cl)C2OC(SC)C(O)C(O)C2O)N(C)C1.Cl (stereo not drawn),IRF Lucia reporter activity,RAW-Dual [1]; [7],1.06
COc1cc(NS(C)(=O)=O)ccc1Nc1c2ccccc2nc2ccccc12.Cl,IRF Lucia reporter activity,RAW-Dual [1]; [6],1.76
COc1cc(NS(C)(=O)=O)ccc1Nc1c2ccccc2nc2ccccc12.Cl (library stock concentration (final ~1000-fold dilution): 10 mM),IRF Lucia reporter activity,RAW-Dual [3]; [5],0.225
same,IRF Lucia reporter activity,RAW-Dual [3]; agonist: LPS (TLR4) 0.1 ug/mL,1.76
Cc1cnc(CNC(=O)c2c(=O)c3ccc(N4CCCN(C)CC4)nc3n3c2sc2ccccc23)cn1 (library stock concentration (final ~1000-fold dilution): 2 mM),IRF Lucia reporter activity,RAW-Dual [2]; [5],1.1
same,IRF Lucia reporter activity,RAW-Dual [2]; agonist: LPS (TLR4) 0.1 ug/mL,1.76
Cc1cnc(CNC(=O)c2c(=O)c3ccc(N4CCCN(C)CC4)nc3n3c2sc2ccccc23)cn1,IRF Lucia reporter activity,RAW-Dual [1]; [4],1.61
O=C1/C(=C/c2ccncc2)CCC/C1=C\c1ccncc1,IRF Lucia reporter activity,RAW-Dual [1]; [6],0.321
O=C1/C(=C/c2ccncc2)CCC/C1=C\c1ccncc1 (library stock concentration (final ~1000-fold dilution): 10 mM),IRF Lucia reporter activity,RAW-Dual [3]; [5],0.114
same,IRF Lucia reporter activity,RAW-Dual [3]; agonist: LPS (TLR4) 0.1 ug/mL,0.0895
O=C(C=Cn1cnc(-c2cc(C(F)(F)F)cc(C(F)(F)F)c2)n1)NNc1cnccn1 (library stock concentration (final ~1000-fold dilution): 10 mM),IRF Lucia reporter activity,RAW-Dual [2]; [5],0.0414
same,IRF Lucia reporter activity,RAW-Dual [2]; agonist: LPS (TLR4) 0.1 ug/mL,0.162
O=C(C=Cn1cnc(-c2cc(C(F)(F)F)cc(C(F)(F)F)c2)n1)NNc1cnccn1,IRF Lucia reporter activity,RAW-Dual [1]; [7],0.139
COc1ccc(NC(=O)c2ccc(C(=N)N(C)C)cc2)c(C(=O)Nc2ccc(Cl)cn2)c1.O=C(O)/C=C\C(=O)O,IRF Lucia reporter activity,RAW-Dual [1]; [7],1.02
COc1ccc(NC(=O)c2ccc(C(=N)N(C)C)cc2)c(C(=O)Nc2ccc(Cl)cn2)c1.O=C(O)/C=C\C(=O)O (library stock concentration (final ~1000-fold dilution): 10 mM),IRF Lucia reporter activity,RAW-Dual [2]; [5],0.858
same,IRF Lucia reporter activity,RAW-Dual [2]; agonist: LPS (TLR4) 0.1 ug/mL,0.917
CCn1c(=O)c(-c2cc(NC(=O)Nc3ccccc3)c(F)cc2Br)cc2cnc(NC)cc21 (library stock concentration (final ~1000-fold dilution): 10 mM),IRF Lucia reporter activity,RAW-Dual [2]; [5],0.671
same,IRF Lucia reporter activity,RAW-Dual [2]; agonist: LPS (TLR4) 0.1 ug/mL,0.268
CN(C)CCCCC(=O)Nc1ccc(NC(=S)NC(=O)c2ccc(C(C)(C)C)cc2)cc1.Cl (library stock concentration (final ~1000-fold dilution): 10 mM),IRF Lucia reporter activity,RAW-Dual [3]; [5],0.136
same,IRF Lucia reporter activity,RAW-Dual [3]; agonist: LPS (TLR4) 0.1 ug/mL,1.07
CN(C)CCCCC(=O)Nc1ccc(NC(=S)NC(=O)c2ccc(C(C)(C)C)cc2)cc1.Cl,IRF Lucia reporter activity,RAW-Dual [1]; [6],0.389
C=CC1(C)CC(OC(=O)CSC(C)(C)CNC(=O)C(N)C(C)C)C2(C)C(C)CCC3(CCC(=O)C32)C(C)C1O.Cl (stereo not drawn) (library stock concentration (final ~1000-fold dilution): 10 mM),IRF Lucia reporter activity,RAW-Dual [2]; [5],0.568
same,IRF Lucia reporter activity,RAW-Dual [2]; agonist: LPS (TLR4) 0.1 ug/mL,1.47
C=CC1(C)CC(OC(=O)CSC(C)(C)CNC(=O)C(N)C(C)C)C2(C)C(C)CCC3(CCC(=O)C32)C(C)C1O.Cl (stereo not drawn),IRF Lucia reporter activity,RAW-Dual [1]; [7],1.3
COc1ccc(CN(CCN(C)C)c2ccccn2)cc1.O=C(O)/C=C\C(=O)O (library stock concentration (final ~1000-fold dilution): 10 mM),IRF Lucia reporter activity,RAW-Dual [2]; [5],1.5
same,IRF Lucia reporter activity,RAW-Dual [2]; agonist: LPS (TLR4) 0.1 ug/mL,0.716
COc1ccc(CN(CCN(C)C)c2ccccn2)cc1.O=C(O)/C=C\C(=O)O,IRF Lucia reporter activity,RAW-Dual [1]; [7],0.966
